Experimental data published in PubChem BioAssay AID1347165 (National Center for Advancing Translational Sciences (NCATS), 2019).
The campaign covered roughly 220,000 compounds. About 5,700 (2.6%) were called active. The shares of active, inactive and inconclusive entries below differ from those in the screen. The call rests on the fitted dose curve; in most records, active means well fitted inhibition curve with a large enough effect; inconclusive means small, poorly fitted or top-dose-only effect; inactive means no such curve, though single readings can be large or run the other way. Where the call is inconclusive, the potency comes from a doubtful curve fit.

biological target: Lysine-specific demethylase 5B (Homo sapiens) (UniProt Q9UGL1); test: Primary screen for KDM5B Histone Demethylases FDH-coupled qHTS; conditions: FDH-coupled NADH fluorescence (FDH is formaldehyde dehydrogenase); series mostly up to 57.7 µM; further: nearly all actives have a fitted effect of over 70% in size
Method in brief: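 Measured: NADH fluorescence change, 30 min, RT. System: KDM5BΔAP 200 nM final, H3K4me3 peptide, α-KG, Fe(II), ascorbate, NAD⁺ plus FDH, pH 7.5 HEPES. Compounds: titrated, 10 min pre-incubation with enzyme.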
Potency means the concentration at half of the fitted maximal effect; tags describe the fitted curve by direction and shape.

UniProt Q9UGL1, sequence (Q9UGL1 whole entry, looked up): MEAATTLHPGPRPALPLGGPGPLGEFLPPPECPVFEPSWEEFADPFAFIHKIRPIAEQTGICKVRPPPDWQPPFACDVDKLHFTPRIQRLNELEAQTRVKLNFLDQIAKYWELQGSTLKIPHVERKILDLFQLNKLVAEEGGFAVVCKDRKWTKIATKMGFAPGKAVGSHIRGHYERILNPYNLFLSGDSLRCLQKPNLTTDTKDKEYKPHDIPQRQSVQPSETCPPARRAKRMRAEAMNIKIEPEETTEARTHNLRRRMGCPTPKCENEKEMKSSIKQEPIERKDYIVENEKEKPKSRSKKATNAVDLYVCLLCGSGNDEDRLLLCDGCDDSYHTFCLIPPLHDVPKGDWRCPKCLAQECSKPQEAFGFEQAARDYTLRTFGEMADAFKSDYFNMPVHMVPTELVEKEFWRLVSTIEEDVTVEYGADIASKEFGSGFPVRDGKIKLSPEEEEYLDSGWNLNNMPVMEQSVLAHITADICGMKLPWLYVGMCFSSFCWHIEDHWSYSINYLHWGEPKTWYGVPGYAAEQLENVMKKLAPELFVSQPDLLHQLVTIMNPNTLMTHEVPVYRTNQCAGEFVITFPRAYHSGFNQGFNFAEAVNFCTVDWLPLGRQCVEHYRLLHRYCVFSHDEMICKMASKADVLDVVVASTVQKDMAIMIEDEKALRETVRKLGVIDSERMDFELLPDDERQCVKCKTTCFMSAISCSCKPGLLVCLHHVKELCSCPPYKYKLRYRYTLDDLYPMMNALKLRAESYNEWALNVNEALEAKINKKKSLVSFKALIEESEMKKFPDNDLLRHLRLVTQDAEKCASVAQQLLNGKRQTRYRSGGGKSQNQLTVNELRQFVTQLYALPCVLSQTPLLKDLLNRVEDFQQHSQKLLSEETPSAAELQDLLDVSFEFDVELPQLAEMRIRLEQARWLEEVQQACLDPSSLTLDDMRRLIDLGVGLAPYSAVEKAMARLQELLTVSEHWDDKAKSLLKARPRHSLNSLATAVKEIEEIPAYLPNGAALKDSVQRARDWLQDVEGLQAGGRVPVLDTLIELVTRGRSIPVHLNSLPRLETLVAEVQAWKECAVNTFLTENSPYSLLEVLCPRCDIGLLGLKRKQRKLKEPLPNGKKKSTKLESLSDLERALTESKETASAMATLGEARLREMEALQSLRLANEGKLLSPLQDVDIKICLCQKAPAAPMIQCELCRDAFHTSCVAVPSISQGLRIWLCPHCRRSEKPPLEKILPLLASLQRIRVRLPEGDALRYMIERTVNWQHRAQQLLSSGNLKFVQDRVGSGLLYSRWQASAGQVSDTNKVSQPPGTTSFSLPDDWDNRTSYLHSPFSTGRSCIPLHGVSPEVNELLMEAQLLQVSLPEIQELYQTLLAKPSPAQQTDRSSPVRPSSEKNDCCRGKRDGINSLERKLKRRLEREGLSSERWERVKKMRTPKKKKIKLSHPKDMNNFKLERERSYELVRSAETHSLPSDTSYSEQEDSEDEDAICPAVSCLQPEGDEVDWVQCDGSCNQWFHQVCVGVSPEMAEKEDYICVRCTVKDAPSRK

SMILES | Potency
Cc1cccc(NC(=O)c2cc3n(n2)CC(c2ccc4c(c2)OCO4)OC3)c1 (stereo not given) | inconclusive: 35.5 µM [inhibitor, single point]
N#Cc1c(Cl)cccc1N1CCCC1 | inconclusive: 20 µM [inhibitor, single point]
Cn1c(SCC(=O)N2CCCC2)nnc1-c1ccc2c(c1)OCO2 | inactive
COc1ccc(-c2cc(N3CCCC(NC(=O)Cc4cccs4)C3)n[nH]2)cc1 (stereo not given) | inconclusive: 28.2 µM [inhibitor, single point]
O=S(=O)(NCc1ccc(F)cc1)c1ccc(N2CCCCS2(=O)=O)cc1 | inactive
CCc1ccc(C(=O)NCc2nnc3cc(-c4nc(C)no4)ccn23)cc1 | inconclusive: 2 µM [inhibitor, partial curve, poor fit]
CCc1ccc(N2CCC(CN)C2)cc1 (stereo not given) | inconclusive: 11.2 µM [inhibitor, partial curve, poor fit]
CC1CCN(Cc2oc(CO)cc(=O)c2O)CC1 | inconclusive: 25.1 µM [inhibitor, single point]
CC(C)CCC(=O)N1CCCC(CN2CCN(c3ccccn3)CC2)C1 (stereo not given) | inactive
NC(=O)c1ccc(COC(=O)CCC(=O)c2ccc(Cl)cc2)c([N+](=O)[O-])c1 | inactive
CCCn1c(C)cc(C(=O)CSc2nnc(C(C)Oc3ccccc3F)o2)c1C (stereo not given) | inactive
CCOC(=O)c1ccc(NC(=O)CSc2nc3c(c(=O)[nH]2)CN(Cc2ccccc2)CC3)cc1 | inconclusive: 22.4 µM [inhibitor, partial curve, poor fit]
Cc1noc2nc(-c3ccccc3F)cc(C(=O)NCc3ccccc3F)c12 | inconclusive: 28.2 µM [inhibitor, partial curve, poor fit]
CCOC(=O)N1CCC(NC(=O)c2c(C)nn(-c3cccc(C)c3)c2-n2cccc2)CC1 | inactive
COc1ccc(-n2nc3c(N4CCC(C(=O)NCc5ccccc5C)CC4)nnc(C)c3c2C)cc1 | inconclusive: 31.6 µM [inhibitor, partial curve, poor fit]
COc1ccc2c(c1)CC/C(=C\c1ccc(C)o1)C2=O | inconclusive: 28.2 µM [inhibitor, partial curve, poor fit]
C(=C\c1ccccc1)/CN1CCN(Cc2nc(COc3ccccc3)no2)CC1 | inactive
Cc1ccc(-c2cc(C(F)F)n3ncc(C#N)c3n2)cc1 | inactive
CC(C)(C)CC(=O)NCC(=O)C(C#N)c1ccc2ccccc2n1 (stereo not given) | inactive
COCCNC(=O)C[C@@H]1c2nc(NC(=O)c3ccnc(Cl)c3)sc2C[C@@H]2[C@](C)(CO)[C@H](O)CC[C@]21C | inactive
CN(Cc1ccccc1)CC(C#N)C(O)c1ccccn1 (stereo not given) | inactive
CN(CCO)C[C@@H]1CN(C(=O)c2cnc3sccn3c2=O)C[C@@H]1CO | inconclusive: 28.2 µM [inhibitor, partial curve, poor fit]
CSc1ccc(NC(=O)c2cc3c(s2)CN(C2CC2)C3)cc1 | active: 22.4 µM

SMILES | Potency
CCOP(=O)(OCC)c1nc(-c2ccco2)oc1NCc1ccccc1 | inconclusive: 20 µM [inhibitor, partial curve, poor fit]
CSc1ccc(/C=C/C(=O)OCC(=O)NC2CCS(=O)(=O)C2)cc1 (stereo not given) | inconclusive: 11.2 µM [inhibitor, partial curve, poor fit]
COc1cccc(CN2CC[C@H]3COC(=O)N3c3cc(C)ccc3C2)c1 | inactive
CCOc1cc2ccccc2cc1C(=O)Nc1nnc(C)s1 | inconclusive: 20 µM [inhibitor, partial curve, poor fit]
CC(=O)N1c2ccccc2C(=O)C1N1CCN(c2cccc(Cl)c2)CC1 (stereo not given) | inconclusive: 25.1 µM [inhibitor, single point]
Cc1cccc(OC(=O)CSc2nnc(-c3ccc4c(c3)OCO4)o2)c1C | inconclusive: 25.1 µM [inhibitor, partial curve, poor fit]
CC(C)(C)C1CCC2(CC1)NC(=O)N(CC(=O)NCc1ccccc1)C2=O (stereo not given) | inactive
Cc1sc2ncnc(SC(F)F)c2c1C | inconclusive: 31.6 µM [inhibitor, partial curve, poor fit]
Cc1cccc(NC(=O)c2ccc3c(c2)N(C)C2CCCCN2C3=O)c1 (stereo not given) | inconclusive: 20 µM [inhibitor, partial curve, poor fit]
COc1cccc(CNc2cc(Cl)nc3ccnn23)c1 | inactive
CCCS(=O)(=O)N1CCCN(c2ccc(=O)n(-c3ccc(C)c(C)c3)n2)CC1 | inactive
CC(C)c1ccc(S(=O)(=O)NCC(c2cccnc2)S(=O)(=O)c2ccccc2)cc1 (stereo not given) | inactive
Cc1ccc(C)c(C(=O)N2CCN(C(=O)c3nnn4c3COC(c3ccccc3)C4)CC2)c1 (stereo not given) | inactive
CC(NC(=O)c1cc2c(=O)n3ccccc3nc2n(C(C)C)c1=N)c1ccccc1 (stereo not given) | inconclusive: 8.91 µM [inhibitor, partial curve, poor fit]
Cc1cc(C2CCCN2S(=O)(=O)c2cc(C)c(C)cc2C)on1 (stereo not given) | inactive
O=c1[nH]cccc1NS(=O)(=O)c1ccccc1F | inconclusive: 8.91 µM [inhibitor, full curve, poor fit]
N#Cc1nc(-c2cccs2)oc1NCCN1CCOCC1 | inconclusive: 28.2 µM [inhibitor, partial curve, poor fit]
CS(=O)(=O)N(Cc1cccnc1)C1CN(C(=O)c2ccc3cc[nH]c3c2)C1 | active: 31.6 µM
CC(C)Cn1cc(NC(=O)NCc2cccc(Cl)c2)c2ccccc2c1=O | inconclusive: 15.8 µM [inhibitor, partial curve, poor fit]
CCCn1c(=O)[nH]c(=O)c2c1nc(-c1ccc(OCC#N)c(OC)c1)n2CCOC | inconclusive: 20 µM [inhibitor, partial curve, poor fit]
CC(C)(C)n1nnnc1SCc1coc(-c2ccccc2)n1 | inactive
Cc1cccc(-n2cc(CN3CCCC(C)(O)C3)c(-c3cccc(F)c3)n2)c1 (stereo not given) | inconclusive: 1.58 µM [inhibitor, full curve, poor fit]
